# Laboratory results: publication PMC4336329 (PLoS ONE, 2015)
# The campaign covered roughly 310,000 compounds. About 14,000 (4.5%) showed an effect of 50% or more. Effects have a minus sign here. The list shows a part of the results.
# Molecular target: human ether-à-go-go-related gene (hERG) potassium channel (human, UniProt Q12809)
# Assay: primary screen, population patch clamp on CHO cells stably expressing hERG
# 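Note: peak tail current of the secondary pulse compared with the same well before compound.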
# Sequence of human ether-à-go-go-related gene (hERG) potassium channel (Q12809 whole entry, looked up): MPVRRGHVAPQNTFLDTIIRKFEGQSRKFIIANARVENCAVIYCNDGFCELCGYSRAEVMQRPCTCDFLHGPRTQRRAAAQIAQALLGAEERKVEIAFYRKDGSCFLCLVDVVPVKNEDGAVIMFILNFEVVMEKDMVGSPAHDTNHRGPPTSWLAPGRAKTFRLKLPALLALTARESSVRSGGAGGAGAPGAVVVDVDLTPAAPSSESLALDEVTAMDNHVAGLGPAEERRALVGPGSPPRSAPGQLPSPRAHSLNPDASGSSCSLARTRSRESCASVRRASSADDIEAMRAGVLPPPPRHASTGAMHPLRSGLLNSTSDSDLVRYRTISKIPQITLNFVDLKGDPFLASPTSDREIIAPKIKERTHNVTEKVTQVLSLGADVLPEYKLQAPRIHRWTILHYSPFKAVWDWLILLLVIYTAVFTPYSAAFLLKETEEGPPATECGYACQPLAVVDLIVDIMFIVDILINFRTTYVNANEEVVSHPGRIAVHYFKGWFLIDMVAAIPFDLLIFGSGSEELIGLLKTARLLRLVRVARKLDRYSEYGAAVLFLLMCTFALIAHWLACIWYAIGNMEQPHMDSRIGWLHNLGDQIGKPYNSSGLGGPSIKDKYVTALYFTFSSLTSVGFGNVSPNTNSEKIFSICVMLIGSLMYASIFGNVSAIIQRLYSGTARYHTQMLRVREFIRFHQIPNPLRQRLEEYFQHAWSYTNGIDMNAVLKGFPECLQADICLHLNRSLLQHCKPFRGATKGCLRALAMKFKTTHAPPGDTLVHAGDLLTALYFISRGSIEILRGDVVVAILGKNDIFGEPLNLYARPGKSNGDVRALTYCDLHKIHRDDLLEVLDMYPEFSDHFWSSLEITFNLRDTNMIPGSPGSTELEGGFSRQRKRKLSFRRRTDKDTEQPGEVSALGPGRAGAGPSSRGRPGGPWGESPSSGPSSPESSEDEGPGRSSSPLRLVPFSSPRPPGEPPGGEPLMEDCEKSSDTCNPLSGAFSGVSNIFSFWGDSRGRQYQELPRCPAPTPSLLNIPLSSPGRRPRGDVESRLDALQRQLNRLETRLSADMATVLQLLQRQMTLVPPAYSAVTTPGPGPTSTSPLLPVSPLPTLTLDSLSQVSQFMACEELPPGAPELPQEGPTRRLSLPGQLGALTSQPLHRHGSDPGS
row,Compound,"hERG current change (%, negative = inhibition) at 10uM [%]"
1,Cc1ccc(NS(=O)(=O)c2ccc(NC(=O)[C@@H]3CCCC[C@@H]3C(=O)O)cc2)c(C)c1,18
2,O=C(Nc1cccn(Cc2ccccc2)c1=O)NC1CCCCC1,-33.3
3,Cc1ccc(S(=O)(=O)C(C#N)c2nc3ccccc3nc2OCCO)cc1 (stereo not shown),5.71
4,N/C(=N\OC(=O)c1cccc(Br)c1)c1ccccc1,7.87
5,CC(=O)Nc1ccc(S(=O)(=O)N(C)c2ccc(OCC(=O)OCC(=O)N3CCCCC3)cc2)cc1,-2.99
6,c1ccc2c(c1)Nc1nccnc1S2,14.6
7,CC(=O)N(CCC(c1ccccc1)c1ccco1)Cc1cccs1 (stereo not shown),-52.9
8,C/C(=N\OCC(=O)OCC(=O)N(C)c1ccccc1)c1ccc2c(c1)OCO2,0.0513
9,Cc1ccc(-n2nnc3c(=O)n(CC(=O)OCc4ccccc4)cnc32)cc1,-4.86
10,COC(=O)C(Cc1ccc(O)cc1)N1Cc2ccccc2C1=O (stereo not shown),16.2
11,Cc1cc(C)c(C(=O)COC(=O)c2cccnc2Cl)c(C)c1,-3.81
12,O=C(OCCOc1ccccc1Cl)c1ccc(-n2cnnn2)cc1,-19.2
13,Cc1ccc(-c2csc(=S)n2CC(=O)OCC(=O)NCc2ccc(F)cc2)cc1,-7.49
14,N#CC1=C(N)NC(=S)C(C(N)=O)C1c1ccc(Cl)cc1Cl (stereo not shown),29.3
15,O=C(NC(Cc1ccccc1)c1nc2ccccc2[nH]1)c1ccc(Cl)c([N+](=O)[O-])c1 (stereo not shown),6.49
16,CCN(CC)S(=O)(=O)c1ccc(NCCCn2ccnc2)c([N+](=O)[O-])c1,-57.2
17,Cc1nccn1C(c1ccccc1)c1ccccc1.O=C(O)C(=O)O,-10.9
18,Cc1ccccc1C(=O)NNC(=O)C12CC3CC(CC(C3)C1)C2,2.76
19,C#CC(C)(CC)NC(=O)c1cc2cccc(CC=C)c2oc1=O (stereo not shown),25.3
20,O=C(C1CC=CCC1)N1CCC(CO)(Cc2ccc(Cl)cc2)CC1 (stereo not shown),-7.77
21,COc1ccc2c(c1)c1nc3n(c(=O)c1n2CC(=O)Nc1cc(C)[nH]n1)CCS3,6.64
22,Oc1c(C(Nc2nc3ccccc3s2)c2ccco2)ccc2cccnc12 (stereo not shown),10.7

row,Compound,"hERG current change (%, negative = inhibition) at 10uM [%]"
1,Cc1ccccc1CC1(CO)CCCN(C(=O)c2ccc(F)cc2)C1 (stereo not shown),14.2
2,COc1cccc(NC(=O)CSc2nc(C3CC3)nc3ccccc23)c1,4.75
3,O=C(c1cc2ccccc2o1)c1nc2c(n1O)CCCCC2,12.2
4,CCCCNc1c(C(=O)OCC)c(=O)[nH]c2ccccc12,4.82
5,CCOC(=O)COc1ccc(Br)cc1/C=C1\SC(N)=NC1=O,3.48
6,Clc1cccc(CSc2nnc(-c3sccc3-n3cccc3)o2)c1,-1.88
7,CCN(CC)CCNC(=O)c1ccc(NC(=O)c2ccc3c(c2)CCC3)cc1,-48.6
8,Cc1ccc(C2(c3noc(CN(C)CCO)n3)CCCC2)cc1,12.2
9,Cc1cccc(C(=O)Oc2c(Br)cc(Br)cc2/C=N/NC(=O)c2ccncc2)c1,1.95
10,Cc1onc(-c2ccccc2)c1C(=O)OCC(=O)Nc1cccc(Cl)c1,-4.69
11,COc1ccc2ccc(OC)c(/C=N/n3cnnc3)c2c1,-2.97
12,CCNC(=O)CC1C(=O)N(c2ccc(F)cc2)C(=O)N1Cc1ccc(OC)cc1 (stereo not shown),-10.3
13,Cc1ccc(OCC(=O)N2CCOCC2)cc1C,10.7
14,c1ccc(-c2noc(C3CCC3)n2)nc1,4.59
15,O=C(COC(=O)CCSc1ccccc1Cl)NCc1ccco1,6.44
16,C/C(=N/NC(=O)c1ccoc1C)c1cccc(NC(=O)C2CC2)c1,-11.4
17,O=C(O)c1ccc(N2C(=O)CC(N3CCN(c4cccc(C(F)(F)F)c4)CC3)C2=O)cc1 (stereo not shown),-4.83
18,Cc1ccc(C)c(NC(=S)N(C)CCO)c1,23.1
19,O=C(NCCN1CCOCC1)c1cccc(Cl)c1,-1.9
20,CC(=O)Nc1ccc(NC(=O)C/C(C)=N/NC(=O)C(=O)N2CCCC2)cc1,20.2
21,CCn1nc(C(=O)NNC(=O)CCOc2cc(C)ccc2C)c2ccccc2c1=O,-77.6
22,Cc1onc(-c2ccccc2)c1C(=O)NNC(=O)c1ccccc1,-1.54

row,Compound,"hERG current change (%, negative = inhibition) at 10uM [%]"
1,N#C/C(=C/c1ccc(-c2ccc(S(N)(=O)=O)cc2)o1)C(=O)Nc1ccccc1,7.21
2,CC(C)(C)c1ccc(C(=O)NC2CCS(=O)(=O)C2)cc1 (stereo not shown),-7.82
3,COc1ccc(C(C(=O)NC2CCCC2)N(C(=O)c2ccoc2C)c2ccc(C)c(C)c2)cc1 (stereo not shown),15.1
4,Cc1nn2cc(-c3ccc(Cl)cc3)cnc2c1Cl,6.09
5,CCCC/C=C/C(NC(=O)c1ccc(C(=O)OC)cc1)c1ccccc1 (stereo not shown),7.8
6,COCCNC(=O)c1ccc2c(Cl)c3c(nc2c1)CCC3,-30.2
7,O=C(CSc1ncn(-c2ccccc2)n1)Nc1nc2c(s1)CCCC2,-37.2
8,COC(=O)C1=NN(C(C)=O)C2(CC(=O)N(c3cccc(C)c3)C2=O)C1 (stereo not shown),4.44
9,O=c1cnn([C@@H]2O[C@H](CO)[C@@H](O)[C@H]2O)c(=O)[nH]1,12.7
10,CC(C)C[C@H](NC(=O)c1[nH]cnc1C(=O)N[C@@H](C)C(=O)OCc1ccccc1)C(=O)OC(C)(C)C,9.62
11,O=C(N/N=C/c1ccccc1Cl)c1ccncc1,4.51
12,CC1(C)CC(=O)C/C(=N\NC(=O)C2C3CCCCC32)C1 (stereo not shown),25.4
13,COCCCNC(=O)c1ccc(-n2nc(C(F)(F)F)cc2-c2cccs2)cc1,-30.6
14,CN1CCN(C(=O)C23CC4CC(C)(CC(C)(C4)C2)C3)CC1.Cl,-26.3
15,CCCCc1nc2n[nH]c(N)c2c2c1CCCC2,-30.3
16,Nc1nnc(SCC(=O)Nc2ccccc2N2CCOCC2)s1,3.88
17,Cc1ccc(OCCC(=O)Nc2ccc(S(=O)(=O)Nc3nccs3)cc2)cc1,4.21
18,Cc1ccc(-c2nc(C(=O)NCCCN(C)C)cc3c2[nH]c2ccccc23)cc1,-27.8
19,O=C(Cc1ccc(-n2c(=O)c3ccccc3n(CC(=O)Nc3ccc(F)cc3F)c2=O)cc1)NCc1ccco1,17.3
20,CN(C)N1C(N)=C(C#N)C(c2cccnc2)C2=C1CC(C)(C)CC2=O (stereo not shown),-19.4
21,CC1(C)Cc2c(C#N)c(N3CCN(C(=O)c4ccco4)CC3)nc(Cc3ccccc3)c2CO1,-25.3
22,CC(=O)N=Nc1[nH]c(N)c2ccccc12,18.3

row,Compound,"hERG current change (%, negative = inhibition) at 10uM [%]"
1,CCCS(=O)(=O)N1CCN=C1SCc1ccc(C)cc1,-26.8
2,COc1ccccc1CCC(=O)Nc1ccc2c(c1)CN(Cc1ccc(CO)o1)CC2,-10.1
3,NC(=O)C1CC12c1ccccc1-c1ccccc12 (stereo not shown),16
4,Cc1ccc(NS(=O)(=O)c2cc(C(=O)N3CCN(C)CC3)ccc2C)cc1,-18.1
5,CCOC(=O)c1ccc(NC(=O)CSc2n[nH]c(-c3ccncc3)n2)cc1,0.37
6,CCOc1ccccc1Nc1ncnc2ccccc12.Cl,-19.1
7,O=c1[nH]c(SCc2ccc(Cl)cc2)nc2ccccc12,3.49
8,CCOc1ccc(-n2c(C)c(C(=O)O)c3cc(OC)ccc32)cc1,21.3
9,Cc1cc(NC(=O)COc2ccccc2)ccc1Cl,-2.25
10,O=C(CSCc1c(Cl)cccc1Cl)NCc1ccco1,4.4
11,COc1ccc2c(C)cc(=O)[nH]c2c1,-6.25
12,O=C(c1cc(COc2c(F)cccc2F)on1)N1CCN(C2CCCCC2)C(=O)C1,-17.5
13,Cc1cc(C)cc(OCCNS(=O)(=O)c2cccs2)c1,26.2
14,NC[C@H]1O[C@H](O[C@H]2[C@H](O)[C@@H](O[C@H]3O[C@H](CO)[C@@H](O)[C@H](N)[C@H]3O)[C@H](N)C[C@@H]2N)[C@H](N)C[C@@H]1O.O=S(=O)(O)O,4.47
15,CSc1cccc(NC(=O)c2cc(S(=O)(=O)N3CCc4ccccc43)cn2C)c1,-12.4
16,COc1ccc(C(=O)NNC(=S)NC2CCCCC2)cc1OC,13.8
17,CN1CCC(N(C)C(=S)Nc2ccc(SC(F)F)cc2)CC1,-56.6
18,CCC(=O)Nc1cccc(-c2ccc(N3CCC(C)CC3)nn2)c1,12.8
19,CC1CN(C(=O)c2nn(C)cc2[N+](=O)[O-])CC(C)O1 (stereo not shown),6.61
20,COCCCn1c(C)nnc1SCC(=O)Nc1cccc(C)c1,11.2
21,CCCCCCn1c(=O)c(-c2ccccc2)c(O)c2ccccc21,-30.8
22,C=CCN(c1ccccc1Cl)S(=O)(=O)c1cccc(C(=O)OCC(=O)N(C)C2CCS(=O)(=O)C2)c1 (stereo not shown),-40.3
